According to the supplement of paper PMC8728848:
The list shows a part of the results.

Legend:
Assay in all cases: glycan array binding signal (z-score within array); higher = stronger binding
Conditions in all cases: glycan notation: IUPAC condensed, linker removed
[1] = molecular target: Neu5Ac(a2-3)Gal6S(b1-4)[Fuc(a1-3)]GlcNAc
Method in brief: (§1)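 Arrays were curated from the Consortium for Functional Glycomics database, 3228 in total, and kept only where the protein sequence was available. Binding is expressed as a within-array Z-score. This score was averaged across arrays of the same protein sequence at different concentrations or buffers and across linkers, and negative values can be read as non-binding.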

Neu5Ac(a2-3)GalNAc = molecular target: Neu5Ac(a2-3)GalNAc
Method in brief: as §1

[2] = molecular target: Neu5Ac(a2-3)GalNAc(b1-4)GlcNAc
Method in brief: as §1

[3] = molecular target: Neu5Ac(a2-3)[GalNAc(b1-4)]Gal(b1-4)Glc
Method in brief: as §1

[4] = molecular target: Neu5Ac(a2-3)[GalNAc(b1-4)]Gal(b1-4)GlcNAc
Method in brief: as §1

[5] = molecular target: Neu5Ac(a2-3)[GalNAc(b1-4)]Gal(b1-4)GlcNAc(b1-3)GalNAc
Method in brief: as §1

[6] = molecular target: Neu5Ac(a2-3)[Neu5Ac(a2-6)]GalNAc
Method in brief: as §1

Neu5Ac(a2-6)Gal = molecular target: Neu5Ac(a2-6)Gal
Method in brief: as §1

[7] = molecular target: Neu5Ac(a2-6)Gal(b1-3)GlcNAc(b1-3)[Gal(b1-4)GlcNAc(b1-6)]Gal(b1-4)Glc
Method in brief: as §1

Neu5Ac(a2-6)Gal(b1-4)Glc = molecular target: Neu5Ac(a2-6)Gal(b1-4)Glc
Method in brief: as §1

[8] = molecular target: Neu5Ac(a2-6)Gal(b1-4)GlcNAc
Method in brief: as §1

[9] = molecular target: Neu5Ac(a2-6)Gal(b1-4)GlcNAc(b1-2)Man(a1-3)Man(b1-4)GlcNAc(b1-4)GlcNAc
Method in brief: as §1

[10] = molecular target: Neu5Ac(a2-6)Gal(b1-4)GlcNAc(b1-2)Man(a1-3)[Gal(b1-4)GlcNAc(b1-2)Man(a1-6)]Man(b1-4)GlcNAc(b1-4)GlcNAc
Method in brief: as §1

[11] = molecular target: Neu5Ac(a2-6)Gal(b1-4)GlcNAc(b1-2)Man(a1-3)[GlcNAc(b1-2)Man(a1-6)]Man(b1-4)GlcNAc(b1-4)GlcNAc
Method in brief: as §1

[12] = molecular target: Neu5Ac(a2-6)Gal(b1-4)GlcNAc(b1-2)Man(a1-3)[GlcNAc(b1-2)Man(b1-4)GlcNAc(b1-2)Man(a1-6)]Man(b1-4)GlcNAc(b1-4)GlcNAc
Method in brief: as §1

[13] = molecular target: Neu5Ac(a2-6)Gal(b1-4)GlcNAc(b1-2)Man(a1-3)[Man(a1-6)]Man(b1-4)GlcNAc(b1-4)GlcNAc
Method in brief: as §1

[14] = molecular target: Neu5Ac(a2-6)Gal(b1-4)GlcNAc(b1-2)Man(a1-3)[Neu5Ac(a2-6)Gal(b1-4)GlcNAc(b1-2)Man(a1-6)]Man(b1-4)GlcNAc(b1-4)GlcNAc
Method in brief: as §1

[15] = molecular target: Neu5Ac(a2-6)Gal(b1-4)GlcNAc(b1-2)Man(a1-3)[Neu5Ac(a2-6)Gal(b1-4)GlcNAc(b1-2)Man(a1-6)]Man(b1-4)GlcNAc(b1-4)[Fuc(a1-6)]GlcNAc
Method in brief: as §1

[16] = molecular target: Neu5Ac(a2-6)Gal(b1-4)GlcNAc(b1-2)Man(a1-6)Man(b1-4)GlcNAc(b1-4)GlcNAc
Method in brief: as §1

[17] = molecular target: Neu5Ac(a2-6)Gal(b1-4)GlcNAc(b1-2)Man(a1-6)[Gal(b1-4)GlcNAc(b1-2)Man(a1-3)]Man(b1-4)GlcNAc(b1-4)GlcNAc
Method in brief: as §1

[18] = molecular target: Neu5Ac(a2-6)Gal(b1-4)GlcNAc(b1-2)Man(a1-6)[GlcNAc(b1-2)Man(a1-3)]Man(b1-4)GlcNAc(b1-4)GlcNAc
Method in brief: as §1

[19] = molecular target: Neu5Ac(a2-6)Gal(b1-4)GlcNAc(b1-2)Man(a1-6)[Man(a1-3)]Man(b1-4)GlcNAc(b1-4)GlcNAc
Method in brief: as §1

[20] = molecular target: Neu5Ac(a2-6)Gal(b1-4)GlcNAc(b1-3)Gal(b1-3)GlcNAc
Method in brief: as §1

[21] = molecular target: Neu5Ac(a2-6)Gal(b1-4)GlcNAc(b1-3)Gal(b1-4)GlcNAc
Method in brief: as §1

[22] = molecular target: Neu5Ac(a2-6)Gal(b1-4)GlcNAc(b1-3)Gal(b1-4)GlcNAc(b1-3)Gal(b1-4)GlcNAc
Method in brief: as §1

[23] = molecular target: Neu5Ac(a2-6)Gal(b1-4)GlcNAc(b1-3)Gal(b1-4)[Fuc(a1-3)]GlcNAc(b1-3)Gal(b1-4)[Fuc(a1-3)]GlcNAc
Method in brief: as §1

[24] = molecular target: Neu5Ac(a2-6)Gal(b1-4)GlcNAc(b1-3)GalNAc
Method in brief: as §1

[25] = molecular target: Neu5Ac(a2-6)Gal(b1-4)GlcNAc(b1-3)[Neu5Ac(a2-6)Gal(b1-4)GlcNAc(b1-6)]GalNAc
Method in brief: as §1

[26] = molecular target: Neu5Ac(a2-6)Gal(b1-4)GlcNAc(b1-6)GalNAc
Method in brief: as §1

[27] = molecular target: Neu5Ac(a2-6)Gal(b1-4)GlcNAc(b1-6)[Gal(b1-3)GlcNAc(b1-3)]Gal(b1-4)Glc
Method in brief: as §1

[28] = molecular target: Neu5Ac(a2-6)Gal(b1-4)GlcNAc6S
Method in brief: as §1

Neu5Ac(a2-6)GalNAc = molecular target: Neu5Ac(a2-6)GalNAc
Method in brief: as §1

[29] = molecular target: Neu5Ac(a2-6)GalNAc(b1-4)GlcNAc
Method in brief: as §1

[30] = molecular target: Neu5Ac(a2-6)GalNAc(b1-4)GlcNAc6S
Method in brief: as §1

[31] = molecular target: Neu5Ac(a2-6)GlcNAc(b1-4)GlcNAc
Method in brief: as §1

[32] = molecular target: Neu5Ac(a2-6)GlcNAc(b1-4)GlcNAc(b1-4)GlcNAc
Method in brief: as §1

Neu5Ac(a2-8)Neu5Ac = molecular target: Neu5Ac(a2-8)Neu5Ac
Method in brief: as §1

[33] = molecular target: Neu5Ac(a2-8)Neu5Ac(a2-3)Gal(b1-3)GalNAc(b1-4)[Neu5Ac(a2-8)Neu5Ac(a2-3)]Gal(b1-4)Glc
Method in brief: as §1

[34] = molecular target: Neu5Ac(a2-8)Neu5Ac(a2-3)Gal(b1-4)Glc
Method in brief: as §1

[35] = molecular target: Neu5Ac(a2-8)Neu5Ac(a2-3)[Gal(b1-3)GalNAc(b1-4)]Gal(b1-4)Glc
Method in brief: as §1

[36] = molecular target: Neu5Ac(a2-8)Neu5Ac(a2-3)[GalNAc(b1-4)]Gal(b1-4)Glc
Method in brief: as §1

[37] = molecular target: Neu5Ac(a2-8)Neu5Ac(a2-8)Neu5Ac
Method in brief: as §1

[38] = molecular target: Neu5Ac(a2-8)Neu5Ac(a2-8)Neu5Ac(a2-3)Gal(b1-4)Glc
Method in brief: as §1

[39] = molecular target: Neu5Ac(a2-8)Neu5Ac(a2-8)Neu5Ac(a2-3)[GalNAc(b1-4)]Gal(b1-4)Glc
Method in brief: as §1

[40] = molecular target: Neu5Ac(a2-8)Neu5Ac(a2-8)Neu5Ac(a2-8)Neu5Ac(a2-3)[GalNAc(b1-4)]Gal(b1-4)Glc
Method in brief: as §1

[41] = molecular target: Neu5Ac(b2-6)Gal(b1-4)GlcNAc
Method in brief: as §1

Neu5Ac(b2-6)GalNAc = molecular target: Neu5Ac(b2-6)GalNAc
Method in brief: as §1

[42] = molecular target: Neu5Ac9Ac(a2-3)Gal(b1-3)GlcNAc
Method in brief: as §1

[43] = molecular target: Neu5Ac9Ac(a2-3)Gal(b1-4)GlcNAc
Method in brief: as §1

[44] = molecular target: Neu5Ac9Ac(a2-6)Gal(b1-4)GlcNAc
Method in brief: as §1

[45] = molecular target: Neu5Gc(a2-3)Gal(b1-3)GlcNAc
Method in brief: as §1

[46] = molecular target: Neu5Gc(a2-3)Gal(b1-3)[Fuc(a1-4)]GlcNAc
Method in brief: as §1

Neu5Gc(a2-3)Gal(b1-4)Glc = molecular target: Neu5Gc(a2-3)Gal(b1-4)Glc
Method in brief: as §1

[47] = molecular target: Neu5Gc(a2-3)Gal(b1-4)GlcNAc
Method in brief: as §1

[48] = molecular target: Neu5Gc(a2-3)Gal(b1-4)[Fuc(a1-3)]GlcNAc
Method in brief: as §1

[49] = molecular target: Neu5Gc(a2-6)Gal(b1-4)GlcNAc
Method in brief: as §1

Neu5Gc(a2-6)GalNAc = molecular target: Neu5Gc(a2-6)GalNAc
Method in brief: as §1

[50] = molecular target: Neu5Gc(b2-6)Gal(b1-4)GlcNAc
Method in brief: as §1

B1: CvGal1 (Crassostrea virginica), A7Y0I5 (protein)
chain: MTYQISKISQPFTSYIPNGLHIGKHLLLRGRVSYGTEAFAINLQQNPEPCNGEVAFHFNPRPGEQQCVRNSFDGGSWMDEERDQPHFPFDEGRSFTLRIEVAEEGFRTYVNGKPYVNFSHRLDLGNVHYLYLTEGAEFYDISYQDRYTLPYKSEIPQQMNVGKAVRIRGASQDNDGFSVNFACDPDNENCAFHFNPRPNEGVVVRNANLGGWGDEERDYEAEFPFHPYNYFDAMFICTDDKYLVHVNDKYFTEFNHRGGVDASSFFNIVGNLDIQDVEYFEPLEDDFVKTIPSGLVKGDVLIFRGFMKPGGDTFSINFMNGYSVEDDIAFHLNPRVGEGQVVMNCCMGGAWGDEEREDIPSPLADREPFEVKVVVKKNKFKVYVNGKKCMKFAARGNLEDIKGVNIKGEAYVYEVKLERKLEDSWEYLPGGFRVGGWVVVQAIPKKGSEGFAINFRTGSDEDSDIAFHFNPRLQENCTIRNSCAGGAWGGEERDQPDFPFEKKDTCEIAIQAQPDRFVTYVNGKRYIEFNHRLPLESITCVELTGRADFFEPKFF
glycan array binding signal (z-score) [1]: -0.233
glycan array binding signal (z-score) (Neu5Ac(a2-3)GalNAc): -0.266
glycan array binding signal (z-score) [2]: -0.277
glycan array binding signal (z-score) [3]: -0.269
glycan array binding signal (z-score) [4]: -0.249
glycan array binding signal (z-score) [5]: -0.275
glycan array binding signal (z-score) [6]: -0.27
glycan array binding signal (z-score) (Neu5Ac(a2-6)Gal): -0.286
glycan array binding signal (z-score) [7]: -0.276
glycan array binding signal (z-score) (Neu5Ac(a2-6)Gal(b1-4)Glc): -0.255
glycan array binding signal (z-score) [8]: -0.274
glycan array binding signal (z-score) [9]: -0.277
glycan array binding signal (z-score) [10]: -0.293
glycan array binding signal (z-score) [11]: -0.285
glycan array binding signal (z-score) [12]: -0.297
glycan array binding signal (z-score) [13]: -0.178
glycan array binding signal (z-score) [14]: -0.272
glycan array binding signal (z-score) [15]: -0.241
glycan array binding signal (z-score) [16]: -0.263
glycan array binding signal (z-score) [17]: -0.275
glycan array binding signal (z-score) [18]: -0.285
glycan array binding signal (z-score) [19]: -0.248
glycan array binding signal (z-score) [20]: -0.286
glycan array binding signal (z-score) [21]: -0.291
glycan array binding signal (z-score) [22]: -0.294
glycan array binding signal (z-score) [23]: -0.28
glycan array binding signal (z-score) [24]: -0.271
glycan array binding signal (z-score) [25]: -0.277
glycan array binding signal (z-score) [26]: -0.286
glycan array binding signal (z-score) [27]: -0.245
glycan array binding signal (z-score) [28]: -0.276
glycan array binding signal (z-score) (Neu5Ac(a2-6)GalNAc): -0.228
glycan array binding signal (z-score) [29]: -0.254
glycan array binding signal (z-score) [30]: -0.281
glycan array binding signal (z-score) [31]: -0.303
glycan array binding signal (z-score) [32]: -0.266
glycan array binding signal (z-score) (Neu5Ac(a2-8)Neu5Ac): -0.277
glycan array binding signal (z-score) [33]: -0.273
glycan array binding signal (z-score) [34]: -0.274
glycan array binding signal (z-score) [35]: -0.239
glycan array binding signal (z-score) [36]: -0.265
glycan array binding signal (z-score) [37]: -0.236
glycan array binding signal (z-score) [38]: -0.232
glycan array binding signal (z-score) [39]: -0.265
glycan array binding signal (z-score) [40]: -0.286
glycan array binding signal (z-score) [41]: -0.174
glycan array binding signal (z-score) (Neu5Ac(b2-6)GalNAc): -0.288
glycan array binding signal (z-score) [42]: -0.297
glycan array binding signal (z-score) [43]: -0.276
glycan array binding signal (z-score) [44]: -0.285
glycan array binding signal (z-score) [45]: -0.239
glycan array binding signal (z-score) [46]: -0.284
glycan array binding signal (z-score) (Neu5Gc(a2-3)Gal(b1-4)Glc): -0.311
glycan array binding signal (z-score) [47]: -0.262
glycan array binding signal (z-score) [48]: -0.283
glycan array binding signal (z-score) [49]: -0.244
glycan array binding signal (z-score) (Neu5Gc(a2-6)GalNAc): -0.195
glycan array binding signal (z-score) [50]: -0.285
